Measured values: the RNAGym collection of RNA variant scans (doi:10.7554/elife.90254)
Read counts are not given, so values of variants with three or more changes are uncertain.

B1: LINE1-mini (parent)
chain: GGCAGAGCUCAACACAGCGUGGCAAAGUGGCUGUGGCUAGACUGCC

Variants of: B1
Assay: self-cleavage, relative activity (ratio to wild type); higher = more cleavage; in vitro, sequencing; the parent is a self-cleaving ribozyme

Row | Variant | self-cleavage
1 | G2C C18U G35C | 0.03
2 | G2A G7U A14U C15A C42U | 0.49
3 | G2C C23U G30A U38A C46A | 0.19
4 | G2A C23U G29U C31U A39U | 0.05
5 | G2A G5C C18G G22A | 0.07
6 | G2A C18G G27A C37G | 0.1
7 | G2C C10A U32G | 0.01
8 | G2C C18U C42U | 0.04
9 | G2C G7A C15A U34C | 0.03
10 | G2A G21U U32A U38G C46A | 0.01
11 | G2A G22A A25C A41C | 0.11
12 | G2C G17A G19U | 0.04
13 | G2A G21U A24C U32C | 0.14
14 | G2A C13G A41U | 0.16
15 | G2A G22U G33U | 0.17
16 | G2A C15G C31G C37U | 0.05
17 | G2C A4G U9C C31A G40A | 0.03
18 | G2C G7U U9G A11C C13U G17C C46G | 0.01
19 | G2C A26G G27A G44A | 0.09
20 | G2A C31U U38A | 0.08
21 | G2C C3A A12G | 0.04

Row | Variant | self-cleavage
22 | G2C C3A C23G A39C | 0.08
23 | G2C C8A G21A U28G | 0.22
24 | G2C C15A U20A C23G C31U G44C | 0
25 | G2C A12G G35C A39U G40U | 0.22
26 | G2A G7A C13A A16C U43C | 0.33
27 | G2A G5A C13U G30U G40U | 0.13
28 | G2A U9C G22A A26U C37U | 0.04
29 | G2A G5A G44C | 0.13
30 | G2C A14G A24U G33A | 0.01
31 | G2C C15A A25C G35C | 0.16
32 | G2C A11U C42A | 0.01
33 | G2C C13A A14C U28C G29A U43A | 0.02
34 | G2A G5C A11G | 0.04
35 | G2C C13A G29U | 0.07
36 | G2C C3A C10G G40C | 0.02
37 | G2C C18G U28A G30C C37A C45A | 0.27
38 | G2C A6U A12U G40U | 0.03
39 | G2C C10G A24C A26U G27C | 0.01
40 | G2A G7U G19U U32A | 0.09
41 | G2A G21A A39C | 0.63
42 | G2A C31G C37U G40U | 0.12

Row | Variant | self-cleavage
43 | G2A C23G U38A | 0.04
44 | G2A U28G G35U | 0.26
45 | G2C C13G U32A G33A U34C | 0.03
46 | G2C C23G A39C | 0.11
47 | G2C C8U C23U G27C C46U | 0.68
48 | G2C A12C A14U U32G G33A U34G | 0.01
49 | G2A G7U U20C G35A C46G | 0.07
50 | G2C C3A G33U | 0.09
51 | G2C A16C G21C | 0.11
52 | G2A G5C C18A | 0.03
53 | G2C A25C U32C A39U C46A | 0.01
54 | G2A C15U A39G | 0.09
55 | G2C C3U G5U C8A G30C U32C | 0.27
56 | G2C C3A A14C A16U | 0.06
57 | G2A C13G A39U | 0.04
58 | G2A G19A C37U | 0.56
59 | G2C C8U C18G G36U U43A | 0.06
60 | G2C C3U A25C A39G | 0.03
61 | G2A G22C C23U G30U C31U C37A | 0.18
62 | G2A G17U G30U | 0.13
63 | G2C G7A A11U C15A A16U G19C G36C G40A | 0.02

Row | Variant | self-cleavage
64 | G2C C3A C15A U28C G33C | 0.02
65 | G2C G17A A41G U43C | 0.03
66 | G2A G17A U20A A26C | 0.15
67 | G2A C13G G36C | 0.21
68 | G2C C10A G22A G33A | 0.01
69 | G2C C8A G30A | 0.97
70 | G2C C8U C13A G17U | 0.3
71 | G2A G7C G29C A39U U43C | 0.04
72 | G2C G17U G33U C45G | 0.01
73 | G2C A6G A11C | 0.01
74 | G2C C13A C23A U28G G29U G30A | 0.12
75 | G2C A6U G29U | 0.14
76 | G2C G7A G22U C45G | 0.16
77 | G2C A4U A14U A25G C42A G44C | 0.01
78 | G2C C8U C37A C45U | 0.05
79 | G2A G22U A25G G27A C31U C42G | 0
80 | G2C A6C C13U C31G G40U | 0.07
81 | G2C A6U A25C U28G G40A | 0.25
82 | G2C C8A C10A U28G U32A | 0
83 | G2A G7C A24G G36U | 0.5
84 | G2A G22A A24G G40U | 0.21
